From PubChem BioAssay AID1508623 (National Center for Advancing Translational Sciences (NCATS), 2021)
About 450 (0.94%) of roughly 48,000 compounds were called active. About 19% were inconclusive and are not listed. Calls come from the whole dose curve; as a rule, active = well fitted inhibition curve with a large enough effect; inconclusive = small, poorly fitted or top-dose-only effect; inactive = no such curve, though single readings can be large or run the other way. This is one part of the list.

Test: Primary qHTS for Identification of Small Molecule Inhibitors of Huntingtin Promoter Activity; note: nearly all actives have a fitted effect of over 50% in size
Conditions: HEK293 HTT promoter firefly luciferase reporter (activity 0% = vehicle and -100% = no light), 24 h; series mostly up to 57.5 µM; activity change, negative = inhibition: at the top concentration
Summary of the method: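 Firefly luciferase signal from promoter-reporter HEK293 cells was scaled between vehicle (0%) and zero RLU (-100%). Compounds were tested at final concentrations of up to 57.5 uM over 24 h at 37 degrees C. PTC124 at 50 uM final served as control inhibitor.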

Activity change, negative = inhibition, inactive:
O=C(NCCC1=CCCCC1)c1ccc2c(c1)N(Cc1ccccc1F)C(=O)c1ccccc1S2=O (configuration not stated) -14.9%
COc1cccc(NC(=O)Cn2c(=O)cc(C)c3c(C)nn(-c4cccc(F)c4)c32)c1 33.6%
CC1CCCCN1C(=O)Cn1c(=O)n(-c2ccc(Cl)cc2)c(=O)c2c3c(sc21)CCC3 (configuration not stated) -8.73%
CCN1CCN(C(c2ccc(OC)cc2)c2c(O)cc(C)n(Cc3ccco3)c2=O)CC1 (configuration not stated) -7.71%
CCN(CC)c1nc2c(-c3cccc(Br)c3)nnn2c2ccccc12 36.9%
COc1cccc(NC(=O)C2CCN(S(=O)(=O)c3cccc4nonc34)CC2)c1 -7.35%
COCCCn1c(=N)c(C(=O)NCC2CCCO2)cc2c(=O)n3cc(C)ccc3nc21 (configuration not stated) 1.15%
Cc1ccc(Nc2c(-c3ccc(N(C)C)cc3)nc3nc[nH]n23)cc1 70%
CC(=O)OCC(=O)[C@H]1CC[C@H]2[C@@H]3CCC4=CC(=O)CC[C@]4(C)[C@H]3CC[C@]12C 4.75%
Cc1ccc2c(=O)cc(C(=O)Nc3ccc(S(=O)(=O)N4CCC(C)CC4)cc3)oc2c1C 13%
O=C(Cc1ccccc1)Nc1sc2c(c1C(=O)Nc1ccccc1)CCCCC2 0.0875%
COc1cc(C2CC(=O)Nc3c2c(C)nn3-c2nc(C)cc(C)n2)cc(OC)c1O (configuration not stated) -3.79%
COc1cccc(-c2nn3c(=O)cc(CN4CCN(S(=O)(=O)c5ccc(C)cc5)CC4)nc3s2)c1 1.53%
COc1ccc(-c2nc3ccccc3n3c(-c4cccc(C)c4)c4c(=O)n(C)c(=O)n(C)c4c23)cc1 -11.4%
CSc1nc(=O)c2c(n1C)NC(=O)CC2c1ccccc1OC(C)C (configuration not stated) -10.4%
COc1cccc(-c2cn3c(n2)sc2cc(C(=O)NCCCc4ccccc4)ccc23)c1 -20.2%
CCc1ccc2c(c1)c(=O)c(S(=O)(=O)c1ccc(Cl)cc1)cn2CC -39.1%
CCOc1ccc(CCNC(=O)CCCn2c(=O)c3cccn3c3cccnc32)cc1OCC 10.1%
COc1cccc(CNCCSc2nnnn2C)c1OCc1ccccc1 -8.67%
COC(=O)CC1Oc2ccccc2-n2cc(-c3ccc(C)cc3)nc21 (configuration not stated) -5.87%
NC[C@@H]1O[C@@H](O[C@H]2[C@@H](O)[C@H](O[C@@H]3[C@@H](O)[C@@H](N)C[C@H](N)[C@H]3O[C@H]3O[C@H](CN)[C@@H](O)[C@@H](O)[C@H]3N)O[C@H]2CO)[C@H](N)[C@@H](O)[C@@H]1O 7.06%
Cc1ccc(S(=O)(=O)NCC2CCC(C(=O)NCc3ccc(F)cc3)CC2)cc1 (configuration not stated) -4.37%
COc1ccc(C)cc1NC(=O)C1CCN(S(=O)(=O)c2c(C)noc2/C=C/c2ccco2)CC1 -7.79%
C#C[C@]1(O)CC[C@H]2[C@@H]3CCC4=CC(=O)CC[C@@H]4[C@H]3CC[C@@]21CC 7.79%
COc1cccc(-n2c(-c3ccc(Cl)cc3)cc3c2CC(C)(C)CC3=O)c1 -29.7%
O=C(Nc1ccc(F)cc1F)C(Cc1ccccc1)N1Cc2ccccc2C1=O (configuration not stated) -24.2%
O=C(CCC(=O)N1CC2CCCN2c2ccccc21)NCc1cccc(Cl)c1 (configuration not stated) -23.4%
COc1cc2c(=O)n(Cc3ccccc3Cl)c(=O)n(CC(=O)Nc3ccccc3)c2cc1OC -16.9%
Cc1ccc(C(=O)Nc2nc3ccc(S(=O)(=O)N4CCCC4)cc3s2)cc1 7.61%
Cc1ccc(-c2nnc(SCC(=O)NC3CCCC3)nc2-c2ccc(C)cc2)cc1 -23.4%
COc1ccc(CN2C(=O)c3oc4ccc(F)cc4c(=O)c3C2c2ccc(O)cc2)cc1 (configuration not stated) -2.93%
CCOc1ccc(NC(=O)CCC(=O)N2CC(C)Oc3ccc(C)cc32)cc1 (configuration not stated) -23%
O=C(/C=C/c1ccccc1)NCCO -0.382%
Cc1nc(N2CCOCC2)c2c(C(=O)NCCc3ccccc3)c(C)oc2n1 27%
Cc1ccc(C(=O)n2nc(-c3ccco3)nc2NCc2cccs2)cc1 -2.78%
CCOC(=O)C1CCN(S(=O)(=O)c2cc3c4c(c2)CC(=O)N4CCC3)CC1 -22.4%
CC1(C)[C@@H](OC(=O)CCC(=O)O)CC[C@]2(C)[C@H]3C(=O)C=C4[C@@H]5C[C@@](C)(C(=O)O)CC[C@]5(C)CC[C@@]4(C)[C@]3(C)CC[C@@H]12 8.44%
O=C(NCCc1ccccc1)C1(c2cccs2)CCOCC1 -7.38%
CN(C)S(=O)(=O)n1cc(/C=C(\NC(=O)c2ccccc2Cl)C(=O)NCCCn2ccnc2)c2ccccc21 -1.35%
CCN(CC)CCNC(=O)c1nn(-c2ccc(OC)c(Cl)c2)c(=O)c2c1c1ccccc1n2C 7.61%
O=C(CSc1nc2c(c(=O)[nH]1)CN(Cc1ccc(F)cc1)CC2)Nc1ccccc1Cl -21.1%
O=C(NCCc1ccccc1Cl)c1ccc2c(c1)nc1n2CCOC1 22.8%
COc1cccc(C(=O)N2c3nc(-c4ccco4)nn3C3(CCCCC3)[C@@H]3CCCC[C@@H]32)c1 -33.4%
CCCNC(=O)c1c(C)nn(-c2cccc(C)c2)c1-n1cccc1 -26.4%
CCOc1ccccc1CNCCNC(=O)c1nonc1N -6.78%
Cc1ccc2ncc3c(-c4ccc(F)cc4)nn(-c4cccc(F)c4)c3c2c1 -22.8%
Cc1ccc2c(c1)c1c(c(=O)n(-c3ccccc3C)c(=O)n1CC(=O)N1CCCC1)n2C -12.2%
Cc1ccccc1S(=O)(=O)Cc1ccc(C(=O)NC2CCC(C)CC2)o1 (configuration not stated) -9.24%
Cc1ccc(CNC(=O)C2CCN(S(=O)(=O)c3ccc4[nH]c(=O)ccc4c3)CC2)cc1 -6.5%
Cc1nc2nc[nH]n2c(=O)c1CCC(=O)Nc1ccc(F)cc1 2.59%
CCC(C)NC(=O)CSc1nc2cc3c(cc2c(=O)n1CCCCCC(=O)NCc1ccc2c(c1)OCO2)OCO3 (configuration not stated) -9.58%
Cc1nn(-c2ccccc2)c2c1N(CC(=O)N1CCN(c3ccc(F)cc3)CC1)C(=O)CS2 -11.4%
O=C(Cn1c(=O)n(Cc2cccs2)c(=O)c2cccnc21)Nc1ccc(F)cc1 -29.3%
COc1cccc2cc(C(=O)Nc3ccc(F)c(F)c3)c(=O)oc12 -8.43%
CCCCCSc1nnc(-c2ccc(Br)cc2)o1 40.7%
Cc1ccc(Cl)cc1-n1c(=O)c2sc3ccccc3c2n(Cc2ccccc2)c1=O -9.74%
CCOc1cc(-c2nnc(SCC(=O)NC3CCCC3)nc2-c2ccc(OC)c(OCC)c2)ccc1OC -13.8%
Nc1ncnc(Nc2ccccc2)n1 15%
CC(C)CCN1C(=O)c2ccccc2CC1(C)C(=O)NC1CCC(C)CC1 (configuration not stated) -7.22%
CC(C)c1ccc(-c2nc(C(N)=O)c3c(n2)n(-c2ccc4c(c2)OCO4)c(=O)n3C)cc1 -7.02%
Cn1c(=O)c(Oc2ccc(F)cc2F)cc2cnc(NC3CCOCC3)nc21 -5.44%
CCOc1ccc(NC(=O)Cn2cc(S(=O)(=O)NC)c(S(=O)(=O)NC)c2)cc1 1.7%
CCOC(=O)C1=C(C)NC(=O)NC1c1cn(-c2ccccc2)nc1-c1ccc(OCC)cc1 (configuration not stated) -10.9%
Cc1ccc(NC(=O)C2CCCN(c3ncnc4onc(-c5ccc(F)cc5)c34)C2)c(Cl)c1 (configuration not stated) 5.62%
CCC(C)NC(=O)Cn1ccc2cc(S(=O)(=O)N3CCCCC3)ccc21 (configuration not stated) -14.9%
Cc1cccc(N2CCN(C(=O)CN3C(=O)COc4ccc(S(=O)(=O)N5CCCCCC5)cc43)CC2)c1C -27.9%
CSc1ncc(C(=O)N2CCN(c3cc(C)ccc3C)CC2)c(C)n1 -22.6%
CCn1c(=N)c(C(=O)NCc2ccccc2)cc2c(=O)n3cc(C)ccc3nc21 -6.11%
CCCCNC(=O)C(Cc1ccccc1)NS(=O)(=O)c1ccc2c(c1)c(=O)n(C)c(=O)n2C (configuration not stated) -8.75%
CCC1CN(C(=O)NCc2ccc(C)cc2)c2ccccc2O1 (configuration not stated) -14.6%
CCOc1ccc(-c2ncnn2-c2sc3c(c2C#N)CCCCC3)cc1 -4.59% [at 11.5 µM]
Cc1cc(C)c(OCC(=O)N(Cc2ccco2)Cc2ccco2)c(C)c1 -19%
COc1ccc(Cn2ccc3nc(C)c(C(=O)Nc4cc(C)cc(C)c4)cc3c2=O)cc1 -21.4%
CSc1ncc(C(=O)Nc2c(C)cccc2C)c(-c2ccccc2)n1 -1.19%
Cc1nc2ccccc2c(=O)n1-c1ccc(NC(=O)c2cccc([N+](=O)[O-])c2)cc1 -19.2%
COc1cc(NC(=O)CN2c3ccccc3S(=O)(=O)c3ccccc32)cc(OC)c1 -1.65%
Cc1ccc(Nc2nnc(-c3ccc(C)c(S(=O)(=O)N4CCN(C)CC4)c3)c3ccccc23)cc1 -14.4% [at 11.5 µM]
COCCNC(=O)CSc1nc(-c2cc(OC)c(OC)c(OC)c2)[nH]c1-c1ccc(Cl)cc1 11%
CCOCCCn1c(SCC(=O)OCC)nc2c(sc3ccccc32)c1=O -6.33%
Cc1ccc(C(=O)CSc2nc(-c3ccccc3)nc3c2CCCC3)c(C)c1 -17.9%
CCCCn1cc(S(=O)(=O)c2ccc(OC)cc2)c(=O)c2cc(CC)ccc21 -26.7%
O=S(=O)(c1ccccc1)c1nnn2c1nc(NC1CCCCC1)c1sccc12 -7.16%
Cn1c(=O)c2c(SCC(=O)Nc3ccccc3C(F)(F)F)nc(C3CCCC3)nc2n(C)c1=O -10.2%
Cc1ccc(Cl)cc1NC(=O)Nc1nnc(N(C)Cc2ccccc2)s1 -25%
CCc1ccc(NC(=O)CN(c2ccc(C)cc2)S(=O)(=O)c2cccs2)cc1 2.85%
COc1ccc(-c2cc(C)no2)cc1S(=O)(=O)N1CCc2ccccc21 -25%
Cc1ccc(CN(C(=O)c2ccccc2)c2ccccn2)o1 -11.4%
O=C(O)CCCCn1c(SCC(=O)Nc2ccccc2C(F)(F)F)nc2ccsc2c1=O 3.56%
Cc1ccc(C(=O)Nc2ccc(S(=O)(=O)N3CCC(c4nc5ccccc5s4)CC3)cc2)cc1 -9.35%
Cc1ccc(OCC(=O)Nc2nnc(S(=O)(=O)N3c4ccccc4CC3C)s2)cc1 (configuration not stated) -12.1%
Cc1ccc(NC(=O)c2nc(S(C)(=O)=O)ncc2N(Cc2ccco2)Cc2cccs2)c(C)c1 -34.8%
Cc1ccc(NC(=O)CSc2nc(=O)n(CCN3CCOCC3)c3c2CCC3)c(C)c1 -31.4%
